ChEMBL document CHEMBL4888484, “Replenishing the malaria drug discovery pipeline: Screening and hit evaluation of the MMV Hit Generation Library 1 (HGL1) against asexual blood stage Plasmodium falciparum ,using a nano luciferase reporter read-out” (2022)
Hit rate of the full screen: of about 150,000 compounds, about 540 (0.36%) showed an effect of 50% or more. The list shows a part of the results.

tested on: Plasmodium falciparum; assay: Primary screen in NF54 nanoGlo assay, in single point, at 2uM, 72h; a lower Z score goes with more inhibition; type: functional, Erythrocyte; details: timepoint 72 hour

Structure (SMILES)	% Inhibition [%]	Z score
O=C(NCCc1ccccc1)Nc1cnn(-c2ncc(N3CCCCC3)cn2)c1	-2	0.3
CC(NC(C)c1ccnc(O)c1)c1ccc(OC(F)F)cc1 (stereo unspecified)	-5	0.6
COCC(=O)N1CCC2(CC1)C[C@@H](CCOCC1CC1)CCO2	-1	0.18
CC(C)(C)c1cccc(OCCNC(=O)N2CC(C(C)(C)O)C2)c1	-6	0.65
CN1C(=O)[C@@H]2CCCCN2c2ccc(C(=O)N3CCN(C(=O)c4ccco4)CC3)cc21	1	-0.14
O=C(c1ccncc1)N1CCC(F)(C(=O)N2CCCC2)CC1	-7	0.95
CC1CCC2(CC1)CC(=O)N(CC(=O)NCC1CCC1)C2=O (stereo unspecified)	-8	1.1
CCc1nc(-c2ccccc2)nc(N2CCN(C(=O)c3ccc(F)cc3)CC2)c1Cc1cc(C)ccc1C	-11	1.18
C=CCC[C@@H](CO)NCc1cccc(F)c1OCC(F)(F)F	-2	0.26
CN(C(=O)c1ccc(Cl)s1)S(C)(=O)=O	-6	1.35
O=C(N[C@H]1CC[C@@H]2CCC[C@@H]21)c1ccc2cc[nH]c2c1	-11	2.13
COc1ccc(CCNC(=O)C2CCC(c3ccc(F)c(C)c3)N(C(C)=O)C2)cc1 (stereo unspecified)	2	-0.27
CCc1nnc(-c2ccc3ccn(CC(=O)Nc4ccccc4C)c3c2)o1	-12	1.48
CCN(CC)S(=O)(=O)c1ccc(CNC(=O)c2cc(C3CC3)nc3c2cnn3C(C)C)cc1	-6	1.03
Cc1cc(C)cc(NC(=O)c2cn3c4c(cccc4c2=O)C[C@@H]3C)c1	7	-0.83
Cn1cc(C2CC2C(=O)N2CCCC(C3NC(=O)NC3=O)C2)cn1 (stereo unspecified)	-9	1.01
c1ccc(-c2noc([C@@H]3COc4ccccc4O3)n2)cc1	-3	0.61
CC(C)CCN(Cc1nc(-c2ccco2)no1)C1CC1	-6	0.74
Cc1cc(C)n(C(C)CC(=O)NC[C@@H]2CCO[C@H]2c2ccnn2C)n1 (stereo partly specified)	-2	0.22
COCCN1CCC[C@H](NS(=O)(=O)c2c(C)nn(C)c2C)C1	2	-0.22
CCOc1ccc(C(=O)NC(CC)[C@H]2C[C@H](O)C2)o1 (stereo partly specified)	6	-1.21
CCN(Cc1ccccn1)C(=O)Nc1cccc(N(C)CC)c1	-12	1.6
C[C@@H]1CN(CCN(C)S(=O)(=O)c2ccc3c(c2)CCC3)C[C@H](C)O1	-6	1.04
